Laboratory results from PubChem BioAssay AID1345082 (National Center for Advancing Translational Sciences (NCATS), 2018).
Hit rate of the full screen: of about 94,000 compounds, about 4,000 (4.3%) were called active. The shares of active, inactive and inconclusive entries below differ from those in the screen. Calls come from the whole dose curve; as a rule, active = well fitted inhibition curve with a large enough effect; inconclusive = small, poorly fitted or top-dose-only effect; inactive = no such curve, though single readings can be large or run the other way. Where the call is inconclusive, the potency comes from a doubtful curve fit.

Assay: Cytotoxic Profiling in NIH 3T3 Cell Line of Diverse Libraries Using Quantitative High-Throughput Screening; note: nearly all actives have a fitted effect of over 55% in size
Conditions: NIH 3T3 viability, CellTiter-Glo ATP luminescence, 48-72 h; activity change, negative = cytotoxicity: at 96.7 µM (top of the series); series mostly up to 96.7 µM
In short: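 First NIH 3T3 cells are plated at 400 cells/well; next compound is pinned in; then plates incubate 48 or 72 hr at 37 °C; finally CellTiter-Glo is added and luminescence read after 10 min.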
% is set by controls: 0 for no effect and ±100 for the full control effect; potency is the fitted concentration of half-maximal effect; tags give direction and shape of the fitted curve.

| Compound | Potency | activity change, negative = cytotoxicity |
| --- | --- | --- |
| CC(=O)Nc1cccc(-c2n[nH]c3c2CC(=O)N(Cc2ccccc2F)C3)c1 | inconclusive: 39.8 µM [inhibitor, partial curve, poor fit] |  |
| COc1ccccc1C(=O)N1CC(Oc2cccc(-c3nc(-c4ccccc4)no3)c2)C1 | active: 31.6 µM |  |
| O=C(NC1CCCCC1)N1CCC(N2C(=O)C3(CCCCC3)C2c2ccncc2)CC1 (centres undefined) |  | inactive: -18% |
| COc1ccc(-c2nc(C)nc3c2CN([S+](=O)([O-])c2onc(C)c2C)CC3)cc1 | inconclusive: 50.1 µM [inhibitor, partial curve, poor fit] |  |
| COc1ccc(-n2nc(C)c(CCC(=O)NCC(C)C)c2Oc2ccccc2)cc1 | inconclusive: 50.1 µM [inhibitor, partial curve, poor fit] |  |
| O=C(c1cccc2[nH]ccc12)N1CC(Oc2ccc(-c3nc(-c4ccccc4)no3)cc2)C1 | inconclusive: 14.1 µM [inhibitor, full curve] |  |
| Cc1nn(-c2ccccc2)c2c1C(C)N(C1CN(C(=O)c3ccc(C(F)(F)F)cc3)C1)C2=O (centres undefined) | inconclusive: 35.5 µM [inhibitor, partial curve] |  |
| CN1CC[C@H](c2nnc(-c3ccc(Cl)cc3)o2)C1 |  | inactive: -26.7% [at 174 µM] |
| C=CCNC(=O)c1ccc(N2CC3CC(C2)[C@H]2CCCC(=O)N2C3)nc1 (some centres undefined) | inconclusive: 50.1 µM [inhibitor, partial curve, poor fit] |  |
| Cc1cc2c(c(=O)n(-c3ccccc3)c(=O)n2CC(=O)Nc2ccc(F)cc2)n1C | inconclusive: 63.1 µM [inhibitor, single point] |  |
| Cc1nc(C2CC(O)C2)cc(N2CCC(OCc3cccnc3)CC2)n1 (centres undefined) | inconclusive: 39.8 µM [inhibitor, partial curve, poor fit] |  |
| Cc1ccc(C(=O)N2CCCC(n3cc(-c4nc(C(C)C)no4)nn3)C2)cc1 (centres undefined) | inconclusive: 25.1 µM [inhibitor, partial curve, poor fit] |  |
| CN1CC2(C1)C(=O)N(Cc1cccc(Cl)c1)C(=O)[C@@H]1C[C@@H](O)CN12 |  | inactive: -5.89% [at 174 µM] |
| COCCN(Cc1ccsc1)Cc1cn[nH]c1-c1ccc(F)cc1 |  | inactive: -27.6% |
| COC(=O)CNC(=O)c1ccc2nc(-c3ccncc3)oc2c1 |  | inactive: -0.936% [at 138 µM] |
| CC(=O)c1cccc(NC(=O)Cn2c(-c3ccc(F)cc3)nc(C)cc2=O)c1 |  | inactive: -25.5% |
| CC(CCc1ccccc1)NC(=O)C1CCN(c2cc(C(F)(F)F)ncn2)CC1 (centres undefined) | inconclusive: 35.5 µM [inhibitor, partial curve, poor fit] |  |
| COc1ccc(Nc2ccnc(N3CCN(C(=O)Cc4ccc(F)cc4)CC3)n2)cc1 | active: 25.1 µM |  |
| COCc1ccc2c(c1)c(OC(C)(C)C(=O)NCC[S+](C)(=O)[O-])nn2CCC(C)C | inconclusive: 56.2 µM [inhibitor, partial curve, poor fit] |  |
| CN(Cc1ccccc1)C(=O)C[C@@H]1CCNC[C@@H]1Cc1cc(CN2CCCCC2)on1 | inconclusive: 100 µM [inhibitor, partial curve, poor fit] |  |

| Compound | Potency | activity change, negative = cytotoxicity |
| --- | --- | --- |
| O=C(NCc1cccc(Cl)c1)c1nnn2c1COC(c1ccc(Cl)cc1)C2 (centres undefined) | inconclusive: 63.1 µM [inhibitor, partial curve, poor fit] |  |
| CCC1=C(C(=O)OC)C(c2ccc(C(C)C)cc2)N2C(CC(=O)N3CCOCC3)=CSC2=N1 (centres undefined) |  | inactive: -27.4% |
| O=C(c1cc2ccccc2o1)N1CCC2(COc3ncccc3S(=O)(=O)N2)C1 (centres undefined) | inconclusive: 44.7 µM [inhibitor, partial curve, poor fit] |  |
| O=C(C[C@@H]1O[C@H](CNCc2ccc(F)cc2)[C@@H](O)[C@H]1O)NCc1ccc(F)cc1 |  | inactive: -23.5% [at 174 µM] |
| O=C(c1ccc(F)c(F)c1)N1CCC2(CC1)NC(=O)N(Cc1ccc(F)cc1)C2=O | inconclusive: 50.1 µM [inhibitor, partial curve, poor fit] |  |
| CN(C)[S+](=O)([O-])c1ccc2c(c1)OCCN(Cc1cccc(F)c1F)C2 | inconclusive: 79.4 µM [inhibitor, partial curve] |  |
| COC(=O)c1ccccc1NC(=O)Cn1cccc1-c1nc(-c2ccc(OC)c(F)c2)no1 |  | inactive: 3.81% |
| CNC(=O)CCn1ncc2cc(OC3CCc4cccc(-c5ccnn5C)c43)ccc21 (centres undefined) | inconclusive: 56.2 µM [inhibitor, partial curve, poor fit] |  |
| COc1cccc(C(=O)N2CCc3nc(C(C)C)nc(-c4ccc(Cl)cc4)c3C2)c1 | inconclusive: 70.8 µM [inhibitor, single point] |  |
| O=C(Nc1ccccc1)N[C@H]1CO[C@H]2[C@@H]1OC[C@@H]2n1cc(CC2CCCCC2)nn1 | inconclusive: 112 µM [inhibitor, partial curve, poor fit] |  |
| COc1ncccc1C(=O)N1CCC(CCC(=O)N2CCC(Cc3ccccc3)CC2)CC1 | inconclusive: 35.5 µM [inhibitor, partial curve] |  |
| CCNC(=O)CC1=CSC2=NC(C)=C(C(=O)Nc3ccccc3)C(c3ccc(F)cc3)N12 (centres undefined) |  | inactive: -11.6% |
| N#Cc1ccc(CNC2(Cc3cc(COc4ccccc4)on3)COC2)cc1 |  | inactive: -23.6% [at 138 µM] |
| C=CCNC(=O)CCc1c(C)nn(-c2ccccc2)c1Oc1ccc(F)cc1F | inconclusive: 50.1 µM [inhibitor, partial curve, poor fit] |  |
| O=C1CS(=O)C2(CCN(S(=O)(=O)Cc3ccccc3F)CC2)N1CC1CC1 (centres undefined) | inconclusive: 44.7 µM [inhibitor, partial curve] |  |
| O=C(NCc1ccc(Cl)cc1)c1cn2cc(-c3ccc(C(F)(F)F)cc3)sc2n1 |  | inactive: -9.9% |
| O=C(CCC1CCN(C(=O)[C@@H]2C[C@@H]3C=C[C@H]2C3)CC1)Nc1ccc2c(c1)OCCO2 | inconclusive: 8.91 µM [inhibitor, full curve, poor fit] |  |
| Cc1cc(C[C@@H]2COC[C@@H]2NC(=O)c2cc(-c3ccccc3O)n[nH]2)on1 | inconclusive: 44.7 µM [inhibitor, partial curve, poor fit] |  |
| Cc1ccc(S(=O)(=O)N2C[C@@H]3OCC(=O)N(Cc4ccc(OC(F)(F)F)cc4)[C@@H]3C2)cc1 | inconclusive: 79.4 µM [inhibitor, partial curve] |  |
